Among all 310,000 compounds or so, about 2,200 (0.71%) showed an effect of 50% or more. Effects have a minus sign here. Some of the results follow.
target: human ether-à-go-go-related gene (hERG) potassium channel (human, UniProt Q12809); assay: primary screen, population patch clamp on CHO cells stably expressing hERG
Sequence (Q12809 whole entry, looked up): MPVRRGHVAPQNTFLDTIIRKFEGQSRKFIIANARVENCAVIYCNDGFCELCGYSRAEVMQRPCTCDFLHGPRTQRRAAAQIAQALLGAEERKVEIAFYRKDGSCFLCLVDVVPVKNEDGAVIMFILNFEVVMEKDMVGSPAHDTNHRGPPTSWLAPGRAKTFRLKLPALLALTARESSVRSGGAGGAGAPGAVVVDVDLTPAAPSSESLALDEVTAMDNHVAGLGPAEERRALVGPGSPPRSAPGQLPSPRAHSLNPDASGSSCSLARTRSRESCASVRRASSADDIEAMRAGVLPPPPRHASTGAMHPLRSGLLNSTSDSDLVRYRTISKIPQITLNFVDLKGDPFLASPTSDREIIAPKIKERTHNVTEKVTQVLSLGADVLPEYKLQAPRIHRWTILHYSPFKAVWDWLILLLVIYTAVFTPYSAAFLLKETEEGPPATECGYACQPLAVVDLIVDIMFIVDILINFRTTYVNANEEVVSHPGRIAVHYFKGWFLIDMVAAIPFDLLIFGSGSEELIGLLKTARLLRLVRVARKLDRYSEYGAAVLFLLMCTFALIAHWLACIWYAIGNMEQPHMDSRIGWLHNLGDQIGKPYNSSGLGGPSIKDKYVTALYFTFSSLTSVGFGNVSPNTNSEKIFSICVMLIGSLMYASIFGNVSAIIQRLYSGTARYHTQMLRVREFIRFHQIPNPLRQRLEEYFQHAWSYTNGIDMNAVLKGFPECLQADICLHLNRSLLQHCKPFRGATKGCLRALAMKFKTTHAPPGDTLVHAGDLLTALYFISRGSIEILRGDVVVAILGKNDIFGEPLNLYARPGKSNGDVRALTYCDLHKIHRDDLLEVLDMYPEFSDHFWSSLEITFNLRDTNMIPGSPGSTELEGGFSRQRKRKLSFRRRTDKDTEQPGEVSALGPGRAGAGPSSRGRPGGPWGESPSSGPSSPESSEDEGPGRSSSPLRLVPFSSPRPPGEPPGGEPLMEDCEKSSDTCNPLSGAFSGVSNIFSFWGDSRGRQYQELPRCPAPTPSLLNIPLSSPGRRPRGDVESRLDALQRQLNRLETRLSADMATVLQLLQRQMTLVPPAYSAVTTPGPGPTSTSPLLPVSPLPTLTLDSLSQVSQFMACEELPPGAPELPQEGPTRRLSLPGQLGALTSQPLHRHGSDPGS

| SMILES | hERG current change (%, negative = inhibition) at 1uM [%] |
| --- | --- |
| Cc1cc(-c2ccc(C)c(S(=O)(=O)Nc3ccc(S(N)(=O)=O)cc3)c2)on1 | 4.46 |
| CC1(C)C(C=C(Cl)Cl)C1C(=O)Nc1ccc([N+](=O)[O-])cc1 (centres unmarked) | 17.1 |
| C/C(=N\NC(=O)c1nn(C)c(C)c1Br)c1ccc(NC(=O)c2ccc(C)s2)cc1 | -0.245 |
| CSc1ccccc1NC(=O)CN1CCCCC1C (centres unmarked) | 9.26 |
| O=C(CSc1ncn[nH]1)NN(c1ccccc1)c1ccccc1 | 5.19 |
| CC(=O)/C(=N/Nc1ccccc1C)N1CCOCC1.Cl | 6.85 |
| COc1ccc(C)cc1NC(=O)C(OC(=O)c1ccc(Cl)c(S(=O)(=O)N(C)c2ccccc2)c1)c1ccccc1 (centres unmarked) | 0.968 |
| FC(F)(F)c1ccc(-n2ccnc2)nc1 | 3.76 |
| O=C(CCn1c2c(c3ccccc31)CCCC2)NNC(=O)c1ccccc1Cl | 11.1 |
| CCOC(=O)C1=C(CN2CCSCC2)NC(=O)NC1c1cc(C)ccc1C (centres unmarked) | 7.06 |
| CCN(CC(=O)Nc1ccccc1C(F)(F)F)C(=O)CCS(=O)(=O)c1ccc(C)cc1 | 10.3 |
| Cc1cccc(-c2nc3ccccc3c(=O)n2-n2cccc2)c1 | 1.91 |
| C/C(=N/NC(=O)CNC(=O)c1cccnc1)c1ccc(Cl)c(Cl)c1 | 7.14 |
| O=C(O)C1=C[C@@H](C2CCCCC2)C[C@@H](OCc2ccc(CO)cc2)O1 | 11.1 |
| CC(=O)Nc1nc(C)c(C(C)C)s1 | 2.06 |
| CS(=O)(=O)N(CC(=O)N1CCC(C(N)=O)CC1)C1CCCCC1 | 7.65 |
| CC(NC(=O)CCc1ccc(S(=O)(=O)NC2CCCCC2)cc1)c1ccccc1 (centres unmarked) | 10.5 |
| Cc1ccc(CS(=O)Cc2ccc(C(=O)NCC(C)c3ccccc3)o2)cc1 (centres unmarked) | 8.71 |
| O=Cc1ccc2noc(-c3ccc(F)cc3)c2c1 | -14.2 |
| Cc1ncccc1C(=O)N1CCCC(C(=O)c2ccc3c4c(cccc24)CC3)C1 (centres unmarked) | 10.2 |
| O=C(COc1ccc2c(-c3ccccc3)cc(=O)oc2c1)NCc1ccccn1 | 0.948 |
| O=C(NC1CCS(=O)(=O)C1)/C(=C/c1ccc(Cl)cc1)NC(=O)c1ccccc1 (centres unmarked) | -22.1 |
| O=C(CNC(=O)c1ccc(-c2ccccc2)cc1)OCc1ccc(Cl)cc1 | 9.75 |

| SMILES | hERG current change (%, negative = inhibition) at 1uM [%] |
| --- | --- |
| CC1CCCCN1C(=S)NC(=O)c1ccccc1 (centres unmarked) | 6.73 |
| CCOC(=O)Cc1csc(NC(=O)CN2CCOCC2)n1 | 8.37 |
| O=C(NCC(c1ccco1)N1CCN(c2ccc(F)cc2)CC1)C(=O)NC1CCCC1 (centres unmarked) | 17.4 |
| Cc1ccc(-c2nnc3n2CCCCC3)cc1 | 0.609 |
| CN(Cc1ccccc1)C(=O)CCSc1nc(-c2ccc3c(c2)OCO3)cc(C(F)(F)F)n1 | 11.4 |
| COc1cccc2c1OCC(CN1CCN(C3CCCCC3)C(CCO)C1)=C2 (centres unmarked) | -9.09 |
| CCCCNC(=S)N/N=C/c1ccccc1F | 0.387 |
| O=[N+]([O-])c1ccc(S(=O)(=O)N/N=C/c2ccsc2)cc1 | 0.0881 |
| Oc1ccc2c(c1)oc1cc(O)ccc12 | 18.6 |
| CCOC(=O)C(C)Oc1ccc(OCc2ccccc2)cc1 (centres unmarked) | 15 |
| COC(=O)CC[C@@H](C(=O)O)N1C(=O)c2ccccc2C1=O | 8.51 |
| O=C(O)Cn1cccc1C(=O)c1ccccc1 | -23.4 |
| COc1cccc(-c2ccc(-c3noc(-c4ccccc4F)n3)c(OC)n2)c1 | -2.17 |
| NNC(=O)c1cnn(-c2ccccc2)c1C(F)(F)F | 19.8 |
| CCn1cc(C(=O)O)c(=O)c2cc(F)c(N3CCN(C(=S)NC(=O)c4cccc(C)c4)CC3)cc21 | 8.59 |
| CC12CN(C(=O)c3ccc([N+](=O)[O-])cc3)CC(C)(CN(C(=O)c3ccc([N+](=O)[O-])cc3)C1)C2=O | 11.4 |
| CCc1noc(C)c1C(=O)Nc1nc2c(C)cccc2s1 | 8.71 |
| CCN(CC)S(=O)(=O)c1ccc(N2CCOCC2)c(NC(=O)CNCCc2ccccc2)c1.O=C(O)C(=O)O | 1.29 |
| O=C(c1ccccc1)c1ccncc1 | 13.5 |
| C=C(C)Cc1c(C)c(C#N)c2nc3ccccc3n2c1N1CCCCC1 | 5.41 |
| C=CCn1c(=O)c(C(=O)Nc2ncccc2O)c(O)c2ccccc21 | 10.2 |
| CCN(Cc1nc2ccccc2c(=O)[nH]1)Cc1cc(=O)oc2cc(OC)ccc12 | -25.6 |
| C=CCSc1cc(C)nc2c(-c3ccccc3)cnn12 | 12.9 |

| SMILES | hERG current change (%, negative = inhibition) at 1uM [%] |
| --- | --- |
| CC(=O)Nc1ccc(NC(=O)Cn2c(-c3ccc(F)cc3)cnc2SCC(=O)Nc2c(C)cccc2C)cc1 | 8.7 |
| Cc1ccc(NC(=O)CCn2cnc3cc(C)c(C)cc32)cc1 | 8.13 |
| Cn1cc2cc([N+](=O)[O-])ccc2n1 | 3.92 |
| CN(Cc1ccccc1)S(=O)(=O)c1ccc(Cl)c(C(=O)O)c1 | 10.8 |
| Cc1cc2ccccc2nc1SCC(=O)NC1CCCC1 | 9.91 |
| N=C1/C(=C\c2ccc(OC(=O)c3ccc(F)cc3)cc2)C(=O)N=C2SC(N3CCCC3)=NN12 | 9.37 |
| O=C(Oc1ccc2c(=O)c(Oc3ccc4ccccc4c3)coc2c1)c1ccco1 | 3.86 |
| CCc1noc(C)c1C(=O)N(C)CC(=O)Nc1ccc(Br)cc1C | 15.2 |
| Cc1cc(C)nc(N2CCC(C(=O)Nc3ccc(Oc4ccccc4)cc3)CC2)n1 | 7.83 |
| Cc1nnc(NC(=O)CC23CC4CC(CC(C4)C2)C3)s1 | 10.4 |
| Cc1cc(C)cc(NC(=O)CN2CCC(NC(=O)Cc3ccccc3)CC2)c1 | -1.89 |
| Cn1c(CNS(=O)(=O)c2ccc(F)cc2)n[nH]c1=S | 19.3 |
| C/C(=N/NC(=O)CNS(=O)(=O)c1ccccc1)c1ccc(Br)cc1 | 11 |
| CCc1nc(NCC(C)C)c(C#N)c2c1COC(C)(C)C2 | 6.38 |
| COc1ccc(OC)c(NC(=O)CSc2nnc(-c3ccco3)o2)c1 | 7.18 |
| CC(C)(C)NC(=O)CN(C(=O)CS(=O)CC(=O)Nc1ccc(F)cc1)c1ccccc1F (centres unmarked) | 2.83 |
| Cc1ccccc1S(=O)(=O)N1CCN(C)CC1 | 11.3 |
| COc1ccc(C2C(C(=O)c3ccco3)=C(O)C(=O)N2CCCn2ccnc2)c(OC)c1 (centres unmarked) | 13.9 |
| O=C(/C=C/Nc1ccc(F)c(F)c1)c1ccc(Br)cc1 | 5.16 |
| Cc1cccc(OCC(=O)NC(=S)Nc2ccc(S(=O)(=O)NC3CCCCC3)cc2)c1 | 11.2 |
| N#Cc1c(N)c(C#N)c(-c2ccc3c(c2)OCO3)c2c1CCCC2 | 7.46 |
| O=C(Cn1c(=O)oc2cc(S(=O)(=O)N3CCCC3)ccc21)N1CCCC1 | 13.9 |
| Cc1cc(C)c2c(=O)[nH]c(SCC(=O)c3ccc(C(C)C)cc3)nc2n1 | 7 |

| SMILES | hERG current change (%, negative = inhibition) at 1uM [%] |
| --- | --- |
| CC(=O)c1cc(-c2ccccc2)n(CC(=O)NC2CCCC2)c1C | 10.7 |
| CCCCNC(=O)CSc1nnc(Cc2ccccc2)n1CC1CCCO1 (centres unmarked) | 16.4 |
| CCC(C)NCCOCCSc1ccc(Cl)cc1.O=C(O)C(=O)O (centres unmarked) | -22.6 |
| Nn1cc(-c2ccccc2)nc1SCC(=O)NC1CCS(=O)(=O)C1 (centres unmarked) | 7.62 |
| CCOc1ccc(OCCC(=O)OC(C)C(=O)Nc2ccc(C(C)=O)cc2)cc1 (centres unmarked) | 3.51 |
| CC1(C)CCC(=O)N(c2ccc(OC(F)(F)F)cc2)C1=O | 12.6 |
| Cc1cccc(C(=O)NCC(=O)OCC(=O)N(C)CC(=O)Nc2ccccc2Cl)c1 | 2.24 |
| CCOC(=O)c1c(C)nn(Cc2cccc(Cl)c2)c1N | 3.66 |
| O=C(Nc1ccc2c(c1)OCCO2)c1cccc(S(=O)(=O)N2CCOCC2)c1 | -5.81 |
| NNC(=O)c1ccc(Oc2cc(Cl)cc(Cl)c2)o1 | 2.4 |
| O=[N+]([O-])c1ccc(N2N=C(c3ccccc3)CC2c2ccccc2O)cc1 (centres unmarked) | 8.01 |
| CCN(CC)CCCNC(=O)c1cn(CC(C)C)c(=O)c2c1c1ccccc1n2C | 3.56 |
| COc1ccccc1-c1oc2ccccc2c1C#CCCCCO | 23 |
| Cc1ccc(NC(=O)CSc2nnc(-c3cnccn3)n2C)cc1C | 22.4 |
| CC1=C(C(=O)Nc2cccnc2)C(c2cccnc2)n2nc(-c3cccs3)nc2N1 (centres unmarked) | 12.1 |
| CCCc1nc(SCC(=O)Nc2nnc(SCC)s2)c2c(=O)n(C)c(=O)n(C)c2n1 | 10 |
| COc1ccccc1NC(=O)C12CC3CC(C1)CC(c1ccc(C)cc1)(C3)C2 | 8.48 |
| COc1ccc(-c2cc(C(=O)NCC3CCCO3)c3cc(C)ccc3n2)cc1 (centres unmarked) | 12.1 |
| CN1CCN(S(=O)(=O)c2ccc(Sc3nnc(-c4cccs4)n3-c3ccccc3)nc2)CC1 | 8.01 |
| Cc1ccc([N+](=O)[O-])cc1NC(=O)c1cccnc1 | 9.15 |

Reference: paper PMC4336329 (PLoS ONE, 2015)
